# Assay results reported in paper PMC10668032.
# This is one part of the list. At the low end of the ranking the order means little.
# Molecular target: SIX1-Q177R homeodomain (UniProt Q15475)
# Assay: universal protein binding microarray
# Conditions: Universal all-10-mer PBM (8x60K, AMADID 030236), 300 nM GST-tagged protein, Alexa Fluor 488 anti-GST; buffer, salt, pH and temperature not stated; high values mean tight binding; most listed sequences are background and not binding sites; double strand, one strand shown
row,Sequence,binding signal [E-score]
1,ATTTGCTG,-0.278
2,ACACGGTG,0.438
3,ATGCCTAA,-0.0881
4,CTGTAGTA,0.0773
5,CCCAATTC,0.0233
6,TCAGGCGA,-0.0421
7,ACCTTCTA,-0.0416
8,ACCGCTGA,0.0282
9,ACCCTGTG,0.207
10,TATTTGAA,-0.155
11,TATCGTGA,-0.118
12,ATGATAGA,-0.186
13,AACACCTT,0.452
14,CACCTGAA,0.235
15,CGAGAATA,-0.0601
16,CGAACTAG,-0.133
17,CGCACGAG,0.139
18,ACCTCCCG,0.133
19,CTTCCCAC,-0.0901
20,GCTCGGAA,-0.0699
21,GCTCGACA,-0.00535
22,ATTATACG,-0.106
23,AAAACCGG,-0.0839
24,CTTCAGTC,-0.231
25,AGGCAACC,-0.214

row,Sequence,binding signal [E-score]
1,GAGGGACC,-0.0368
2,CTTCCTTA,-0.0897
3,CGCGTGTA,0.43
4,AACGGATA,0.0941
5,GGAGGTAC,-0.0532
6,CGCCGTTA,-0.101
7,CAAATAAG,-0.0839
8,ACCATCAT,-0.0537
9,GCCGGTTA,0.0222
10,ACCGAGGA,0.152
11,GATTAGAA,0.00901
12,CACGCAAG,0.123
13,ATCAGTTG,0.0653
14,CACTCCTA,0.206
15,CTTCATGA,0.0206
16,ACACATAC,0.18
17,ACATTGTC,-0.0597
18,CGCACGAA,0.102
19,ACGCGAGG,0.123
20,CTCTTGAA,-0.0221
21,ACACAGTG,0.259
22,AACCGCTG,-0.127
23,GTAGGCCA,-0.00103
24,CAGGGTTC,-0.0387
25,ATCTATAA,-0.186

row,Sequence,binding signal [E-score]
1,AAATTCGG,0.0463
2,AACGCCCG,0.12
3,CGCTGTAA,-0.121
4,GTCGCGAC,0.0839
5,CGCACGCA,0.0753
6,TGATAGAA,-0.0326
7,AGGACAGA,-0.246
8,GTCTACAC,0.42
9,CTGGCATC,-0.0197
10,ACGGAACA,0.212
11,GGCGATTA,-0.138
12,ACGTGTAC,0.387
13,ATAGATCG,-0.245
14,GTCCAGTA,-0.1
15,CCATCGGC,-0.244
16,CAAGCAAC,-0.0429
17,CGCGCACC,0.193
18,AAGATTAA,-0.0325
19,GCCCTCCC,0.0286
20,CTTCCTCA,-0.0983
21,ACACATCG,-0.0326
22,CACGCTTA,0.276
23,AGGGGTAT,0.3
24,CGCCGGTC,-0.343
25,AACGGGCG,-0.127

row,Sequence,binding signal [E-score]
1,TCGCGACA,0.0613
2,CGGCAGTC,-0.115
3,CAGATTCG,0.161
4,CCGACCCC,0.24
5,AGGCCCTC,-0.258
6,TCTTGTAA,-0.112
7,AGCCATCG,0.0657
8,GTGTACGA,0.439
9,GAGATAAC,-0.154
10,AAGATATA,-0.135
11,CGTGCCCC,0.0729
12,TAGCTATA,-0.0737
13,AGAGATAG,-0.189
14,AACGATAG,0.019
15,TCAATTCA,-0.126
16,AGGTGAAG,0.0364
17,ACCTATAC,0.205
18,AAAAAGGC,-0.314
19,AGATTGAA,0.0443
20,CAATGCAC,0.0545
21,AAGTCTGT,-0.16
22,GCCTTAAA,-0.306
23,CAGGAAAA,0.044
24,CATACCGG,-0.0597
25,TCTTTCAA,0.00619

row,Sequence,binding signal [E-score]
1,AGGAGAGG,-0.0668
2,TGTGATAA,0.0924
3,GAGCGATA,-0.0883
4,CCGGCCAG,-0.00733
5,ACCTTCGG,0.141
6,CCGAGCCA,0.0328
7,ACTTGAGG,0.0625
8,TGTCTTAA,0.022
9,GTTCGTAA,-0.0759
10,GCCCACGC,-0.232
11,GACTGGAC,-0.185
12,AACCGTGC,0.0611
13,AGGTTTTA,-0.176
14,AGCCGGTA,-0.0142
15,GCATGTAC,-0.0968
16,ATTTCGCG,-0.174
17,TCATACCA,-0.0855
18,ACGACCCT,0.0887
19,CCAGGCGA,-0.0155
20,CATAATCA,-0.131
21,AGTTAACG,-0.0261
22,AGCTCGGA,-0.124
23,ACGGACCC,0.127
24,TAGATGCA,0.0103
25,AGGGTGTA,0.475

row,Sequence,binding signal [E-score]
1,TGTAGCAA,0.128
2,TATATGAA,0.00389
3,AACCTGTA,-0.217
4,AAGCCCTA,-0.15
5,AACGCACA,0.00611
6,CTATTTGC,-0.152
7,AGAAGACC,-0.129
8,GCCTGGAA,-0.179
9,CTGCTTGC,-0.3
10,CCGTCACG,-0.0622
11,ATCGTCTA,-0.0482
12,CGCGGGAC,0.0259
13,AGTGCGGG,0.0407
14,AGTATAAG,-0.057
15,AATTACTC,0.0272
16,AAGCCTGC,-0.209
17,AAATTACC,-0.0497
18,TGGCTCAA,-0.199
19,CTCCGAGA,-0.0574
20,AGGGTGTG,0.4
21,GTCTTTAA,-0.161
22,ATTCCGTA,-0.141
23,CCGCGTTA,0.0838
24,CTTGAGCA,-0.105
25,ATCTATCC,-0.0386

row,Sequence,binding signal [E-score]
1,AATGTGTG,0.104
2,CCCCATCA,0.186
3,AAACCTGT,-0.21
4,ATACTTAG,0.0236
5,CCGCCTAA,-0.0448
6,ACTTCCCC,-0.11
7,AGTCCTCG,-0.0778
8,GACGCAGC,-0.0663
9,TTCATGAA,0.094
10,CTCATCGA,-0.151
11,TAATGAAA,-0.137
12,AAGAATGG,-0.217
13,AAGCATTC,-0.217
14,CAGTGTGA,0.306
15,AGAGGTCG,-0.111
16,CAACGGGA,-0.178
17,CGATTGAG,-0.139
18,GGCCGCAC,-0.0226
19,CTTTGATA,-0.0103
20,TACATGTA,0.069
21,ACTATAAC,0.137
22,CATAGCAC,0.195
23,CGGGGGAG,0.0729
24,GATTGCGA,-0.22
25,GCGTTGCC,0.0164

row,Sequence,binding signal [E-score]
1,TTCGCCAA,-0.0996
2,CTAAAATC,-0.204
3,AATAATGT,-0.0278
4,CTGAGGCA,-0.203
5,CCATGGTC,-0.13
6,GCTGAACA,0.169
7,CAAAGCCA,0.0553
8,AGTGGGCA,-0.313
9,GATTTGAC,0.0166
10,TATTACCA,-0.118
11,TATTGCCA,-0.131
12,CAAAAAAG,-0.0937
13,CAGTATGG,-0.0566
14,CATGTCAG,0.0142
15,ATTTCGCA,-0.152
16,ATCTTACG,-0.203
17,CTATCAAG,-0.0881
18,CATTCGAG,-0.109
19,GGTCGCAA,-0.016
20,AAATCCAT,-0.151
21,AAGAATAT,-0.329
22,CCGGTCTC,0.0177
23,CGTAACTC,0.0681
24,CCTGCAAA,-0.0958
25,AGAATACG,0.101

row,Sequence,binding signal [E-score]
1,CGAAGTGC,-0.164
2,CGAAATTA,-0.221
3,CCGACCTC,0.114
4,ATAACTTG,-0.12
5,GCCGGATA,0.0853
6,ACAACACT,0.35
7,AACTGTCC,-0.266
8,AGAGCCTA,-0.198
9,ACATGGAC,-0.123
10,GGTGCCGA,0.188
11,ATCTCCTC,-0.1
12,ATGACTCG,0.0804
13,GCCGACCA,0.047
14,ATATTCGG,0.00737
15,ATTCTCCA,-0.166
16,CTTGCAAG,-0.235
17,GTAGAGTA,0.253
18,CGCCCAAA,-0.224
19,GGGCATTA,0.0253
20,GGGCGGCA,-0.0597
21,ACACGGGC,0.424
22,GCCTGCGA,-0.241
23,GGTTTGTA,0.148
24,AGAGTGTC,0.412
25,GATCTTCC,0.0875

row,Sequence,binding signal [E-score]
1,GTAAATAC,-0.0464
2,GGCTATAC,-0.0917
3,CGAGGCAG,-0.225
4,CCCTAGGA,0.0598
5,GCGAAACA,0.0471
6,ATTCATTG,-0.119
7,CACTCCTG,0.335
8,CTTGTGGC,-0.0678
9,AACCGGGA,-0.0494
10,CGGCCATA,-0.138
11,GGTGGCTA,-0.0164
12,GTTTTCAA,-0.0894
13,ATTTGCAA,-0.291
14,CACATGTA,-0.0412
15,AAGAGACC,0.000615
16,GCGTTGGA,0.107
17,AGCCTTTA,-0.167
18,CTATGGGA,-0.083
19,ATGGGGAG,-0.0333
20,GATTCGTA,0.0678
21,CCCTGTCA,0.0397
22,TGGATTAA,-0.0619
23,AGAGTTTC,-0.151
24,CACGTAAC,0.099
25,GGTAAAAC,0.025

row,Sequence,binding signal [E-score]
1,ACGTCCCG,0.0356
2,AACCCGGG,0.244
3,CCCGTAGG,0.178
4,ACGCGCGA,0.0288
5,ACGAGGCG,0.11
6,CGGCGTCC,0.0693
7,GAGGTGAA,-0.162
8,ACCATGCG,-0.0152
9,GAAGCTAA,-0.201
10,GCGTAGGA,0.0884
11,CATGATAC,0.287
12,AGAGGCTG,-0.0524
13,CAAACTCG,-0.158
14,CCTTTTCG,-0.183
15,GGATGTCA,0.0654
16,ATTTATCA,-0.16
17,CAGGGTAG,0.0718
18,GCCCACCC,0.229
19,ACGATGAT,-0.0343
20,AGATTCCG,-0.0149
21,AGGCAAGA,-0.198
22,ATCAAGAT,-0.123
23,GACATGCC,-0.0196
24,CAATCGTC,0.104
25,ACGATGAA,-0.229

row,Sequence,binding signal [E-score]
1,AAGTTTAC,-0.154
2,ACGAATTC,-0.116
3,CTGGGACC,-0.152
4,CGATGACG,-0.147
5,ACTCCCTC,0.156
6,CCGTTCAG,-0.2
7,CCGCCAAA,-0.13
8,AACTGTAA,-0.126
9,AAAGTTAC,0.00056
10,GGGCAGGA,0.135
11,CCCCGGGA,0.253
12,ATGAAAAA,-0.136
13,AAACAGCT,-0.147
14,AAAGGCAT,-0.214
15,GGACCACA,-0.0544
16,GGCACAAC,-0.0395
17,AGACAAAT,-0.185
18,CAAGCAGC,-0.194
19,AAGCCTGG,-0.236
20,ACTTGGGG,-0.00376
21,ACATTCCC,-0.181
22,ATGTCACA,-0.00363
23,GCTCTCCC,-0.147
24,ACGTTCAT,-0.0319
25,AATTTAGA,-0.129

row,Sequence,binding signal [E-score]
1,ACTTATGA,-0.134
2,CTCCAATC,-0.0901
3,ACGTATAG,-0.0737
4,ATTAATCG,-0.152
5,AGTGATGC,-0.157
6,ACTTGTCT,-0.168
7,GCGGGTAC,0.201
8,GGCACGTA,-0.0488
9,CAGCAAGG,0.0406
10,GACATACC,-0.0901
11,CATTTGGG,-0.0114
12,AGAAATAA,-0.0682
13,CTTTAGTC,-0.284
14,AGCTGGCC,-0.211
15,ATGTGGCA,-0.0573
16,GCGTGGAC,-0.0167
17,GAACCCTA,0.0421
18,CAAGCTCG,-0.179
19,AATCTTTG,-0.184
20,TGCGCACA,0.134
21,CGGACGAC,0.152
22,CTGCTCAC,0.0583
23,CAAACCCC,0.197
24,ACTATCGG,-0.067
25,ACTCCCAC,0.0902

row,Sequence,binding signal [E-score]
1,TCACCTGA,0.0235
2,CACAAGTA,0.0438
3,TACGCGTA,0.128
4,CGTTGCCC,-0.246
5,GAAGGCGC,-0.0589
6,GCTGACTA,-0.205
7,CTCTTAAG,-0.197
8,ATAAGCTA,-0.159
9,ATTCGACG,-0.0493
10,CTAATTGA,-0.0408
11,CAGAACAG,0.0111
12,ACATTCGG,0.311
13,CCTGTCAG,-0.0895
14,CGTACAGC,-0.177
15,CTCGTCGA,-0.24
16,CGCATTGC,0.166
17,CGTACTCA,-0.0921
18,ACGCGGAG,0.0276
19,AGAGCCTG,-0.144
